Laboratory results: article PMC4336329 (PLoS ONE, 2015)
About 14,000 (4.5%) of roughly 310,000 compounds showed an effect of 50% or more. The effect is printed as a negative number. The list shows a part of the results.

The compounds below were run against human ether-à-go-go-related gene (hERG) potassium channel (human, UniProt Q12809) (assay: primary screen, population patch clamp on CHO cells stably expressing hERG).
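Further: peak tail current of the secondary pulse compared with the same well before compound.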

Sequence of human ether-à-go-go-related gene (hERG) potassium channel (Q12809 whole entry, looked up): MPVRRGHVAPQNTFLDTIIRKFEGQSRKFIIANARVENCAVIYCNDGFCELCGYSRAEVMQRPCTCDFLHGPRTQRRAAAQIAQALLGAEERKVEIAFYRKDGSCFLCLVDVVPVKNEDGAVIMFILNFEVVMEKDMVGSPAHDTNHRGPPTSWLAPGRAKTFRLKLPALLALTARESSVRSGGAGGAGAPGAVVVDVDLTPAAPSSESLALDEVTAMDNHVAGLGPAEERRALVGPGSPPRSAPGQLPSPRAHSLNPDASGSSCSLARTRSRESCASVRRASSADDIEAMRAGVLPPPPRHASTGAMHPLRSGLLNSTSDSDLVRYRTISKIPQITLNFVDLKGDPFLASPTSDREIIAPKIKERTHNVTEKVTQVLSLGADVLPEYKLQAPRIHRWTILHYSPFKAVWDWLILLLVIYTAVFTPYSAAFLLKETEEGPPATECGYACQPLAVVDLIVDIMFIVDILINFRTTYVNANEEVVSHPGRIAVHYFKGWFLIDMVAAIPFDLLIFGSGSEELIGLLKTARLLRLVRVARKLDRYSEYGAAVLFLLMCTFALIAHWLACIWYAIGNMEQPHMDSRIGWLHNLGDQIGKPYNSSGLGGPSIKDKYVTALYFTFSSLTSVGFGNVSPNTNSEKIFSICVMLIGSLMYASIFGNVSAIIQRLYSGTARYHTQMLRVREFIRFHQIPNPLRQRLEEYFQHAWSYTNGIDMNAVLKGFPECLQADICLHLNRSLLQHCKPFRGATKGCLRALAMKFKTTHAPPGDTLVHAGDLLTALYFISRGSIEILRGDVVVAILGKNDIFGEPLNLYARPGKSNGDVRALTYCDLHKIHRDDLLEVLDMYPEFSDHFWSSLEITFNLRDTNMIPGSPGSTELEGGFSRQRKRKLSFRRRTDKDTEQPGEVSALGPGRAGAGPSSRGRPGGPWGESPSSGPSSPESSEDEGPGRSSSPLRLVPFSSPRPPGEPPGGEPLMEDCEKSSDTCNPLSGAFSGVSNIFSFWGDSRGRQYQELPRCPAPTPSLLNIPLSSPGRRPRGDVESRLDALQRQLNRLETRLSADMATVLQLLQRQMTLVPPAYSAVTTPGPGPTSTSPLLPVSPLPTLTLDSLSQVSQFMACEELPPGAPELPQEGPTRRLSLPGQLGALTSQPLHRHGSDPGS

SMILES	hERG current change (%, negative = inhibition) at 10uM [%]
CCn1c(CC(=O)Nc2ccccc2C)nnc1SCC(=O)Nc1nncs1	17.3
COc1ccc(S(=O)(=O)NCCc2nnc3ccc(SCC(=O)Nc4nc(C)cs4)nn23)cc1	25.3
CC(C)(C)c1cc(NC(=O)c2cccs2)no1	6.66
Cc1ccccc1-c1noc(C(C)NC(=O)c2ccco2)n1 (stereo not drawn)	8.48
C/C(CC1(O)C(=O)Nc2ccccc21)=N\O (stereo not drawn)	26.8
COc1ccc(NC(=O)Cn2ncn3nc(-c4ccc(OC)cc4)cc3c2=O)cc1	18.4
CN1CC(=O)N(CC(=O)NCc2ccc(F)cc2)c2ccccc2C1=O	9.9
O=C(NCCOc1ccccc1)C1Nc2ccc(OC(F)(F)F)cc2C2C=CCC12 (stereo not drawn)	-11
COc1ccc(C(=O)NNC(=O)c2cc3cccc(OC)c3oc2=O)cc1	14.1
COc1ccc(C(=O)NCCCN=C2NS(=O)(=O)c3ccccc32)cc1	18.6
O=C(NCc1ccco1)Nc1ccc(Br)cc1Cl	-44
CCC(C)(C)NC(=O)C(c1ccc(C)cc1)N(Cc1cccnc1)C(=O)c1csnn1 (stereo not drawn)	-8.91
COc1cc([N+](=O)[O-])ccc1NC(=O)Nc1ccc2c(c1)OCCO2	25.3
Cc1[nH]n(-c2ccccc2)c(=O)c1C(=O)c1cccc(F)c1	22.5
O=C(CN1CCN(c2ccccn2)CC1)Nc1ccccc1	-9.4
CCc1ccccc1NC(=O)C1=CC(c2cccs2)=NS(=O)(=O)N1C	-8.42
CC(=O)NCCc1csc(-c2ccccc2)n1	7.78
CCN(CC)c1ccc(S(=O)(=O)N2CCOCC2)cc1NS(C)(=O)=O	23
Cc1ccc(C(=O)OCC(=O)Nc2ccc3[nH]c(=O)[nH]c3c2)cc1[N+](=O)[O-]	3.1
COc1ccc(-c2cccc(C3CC=CC4C3C(=O)N(Cc3ccccc3)C4c3ccc4ccccc4c3)c2)cc1 (stereo not drawn)	11.1
Cc1cc(=O)[nH]c(NN=C(CC(C)C)CC(C)C)n1	2.8
CCOC1CS(=O)(=O)CC1OCC (stereo not drawn)	8.36
O=C(CSc1nc(=O)n2ccccc2n1)Nc1cccc2ccccc12	-10.4

SMILES	hERG current change (%, negative = inhibition) at 10uM [%]
O=S(=O)(Cc1ccccc1)Oc1ccccc1	-33.8
CCCCNC(=O)N1CCOCCOCCN(C(=O)NCCCC)CCOCC1	-18.6
CN(C)c1ccc(/C=C/C(=O)c2c(O)c3ccccc3oc2=O)cc1	5.85
CN(Cc1cccs1)C(=O)CSc1nnnn1C	2.42
CCCCSc1nc(O)c(C2OC(=O)c3c2ccc(OC)c3OC)c(=O)n1-c1ccccc1 (stereo not drawn)	17
COc1ccc(N(CC(=O)NC2CCCC2)C(=O)Cn2nnc(-c3ccc(OC)c(OC)c3)n2)c(OC)c1	-40.8
Cc1nc(CS(=O)(=O)c2ccccn2)sc1C(=O)NNC(=O)c1ccc(Cl)cc1	-1.57
NC(=O)c1ccc(NC(=O)C2CCCC2)cc1	16.7
CC(C)Oc1ccc2nnnn2n1	9.77
Cc1cc2c(nn1)CCc1nonc1-2	4.93
Clc1ccc(Cn2nnc3ccccc32)cc1	8.43
Cc1cc(C)nc(SCc2csc(N)n2)n1	6.03
CCCN(Cc1cc2ccc(C)cc2[nH]c1=O)S(=O)(=O)c1ccccc1	6.34
CC(C)Cc1nnc(NC(=O)CCC(=O)NC2CCCCC2)s1	5.17
CCN1CCC(O)(C#Cc2ccccc2)CC1	9.73
CC(O)Cn1nc([N+](=O)[O-])nc1N (stereo not drawn)	11.8
CCOC(=O)C1CCN(S(=O)(=O)c2ccc3c(c2)N(C)C(=O)CC(=O)N3C)CC1	-11.7
CC(=O)Nc1ccc2nc(NC(=O)COc3ccccc3)sc2c1	21.5
COc1ccc(-c2cnnc(N/N=C/c3ccc(O)c(OC)c3)n2)cc1	-50.1
Cc1ccc(CS(=O)(=O)CCC(=O)NCCCN2CCCC2)cc1	13.1
O=C(Nc1ccc(Cl)cc1C(=O)NCc1cccnc1)c1ccco1	-4.78
COCCCn1c(SCC(=O)Nc2cccc(C(=O)OC)c2)nnc1-c1ccncc1	-15.8
